# Source: PubChem BioAssay AID686979 (National Center for Advancing Translational Sciences (NCATS), 2013)
# Values joined by “and” are separate entries in the source; they are usually repeats but may differ in a detail not shown here. Equal values may be shown once. Among all 420,000 compounds or so, about 50,000 (12%) were called active. The inconclusive results got no clear call from the source; some entries with a clear call stand among them for comparison. Calls follow the shape of the dose curve; as a rule, active = well fitted inhibition curve with a large enough effect; inconclusive = small, poorly fitted or top-dose-only effect; inactive = flat fitted curve, though single readings scatter. A potency beside an inconclusive call is a rough fit, not a confirmed value.
# Experiment: qHTS for Inhibitors of human tyrosyl-DNA phosphodiesterase 1 (TDP1): qHTS in cells in presence of CPT; also: nearly all actives have a fitted effect of over 55% in size
# Details: chicken DT40 Tdp1-/-;hTDP1 cells + 20 nM CPT, ATP luminescence, 48 h; activity change, negative = growth inhibition: at 46.2 µM (top of the series) unless noted
# In short: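 Chicken DT40 Tdp1-/- cells complemented with human TDP1, 400 cells/well, exposed to compounds plus 20 nM camptothecin for at least 48 h at 37 C; viability read as ATP content by CellTiter-Glo luminescence.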
# % is scaled to controls: 0 for no effect and ±100 for the full control effect; potency is read from the fitted curve at half-maximal effect; tags tell the direction and shape of the fitted curve.
Compound,Potency,"activity change, negative = growth inhibition"
O=C(CCNS(=O)(=O)c1ccccc1C(F)(F)F)N1CCN(S(=O)(=O)c2cccc(Cl)c2)CC1,"inconclusive: 18.4 µM [inhibitor, single point]",–
COc1ccccc1-c1ccnc(-n2ncc(C(=O)NCCc3cccnc3)c2C)n1,–,inactive: 4.32% [at 9.04 µM]
Cc1ccc(-c2cc(C(=O)NCCCn3ccnc3)c3cc(Br)ccc3n2)o1,"inconclusive: 16.4 µM [inhibitor, single point]",–
CCN(CC)CCCNC(=O)CNC(=O)c1nn(-c2ccc(OC)cc2)c(=O)c2ccccc12,–,inactive: -3.46%
CCOc1cc(NC(=O)c2ccco2)c(OCC)cc1NC(=O)c1cc(OC)c(OC)c(OC)c1,"inconclusive: 18.4 µM [inhibitor, single point]",–
CC(C)c1ccc(C(=O)Nc2ccc(S(=O)(=O)NC3=NCCCCC3)cc2)cc1,active: 16.4 µM,–
CCNC(=O)Oc1ccc[nH]c1=O,"inconclusive: 16.4 µM [inhibitor, partial curve]",–
Cc1[nH]c2ccccc2c1C1(O)C(=O)N(Cc2ccc(Cl)cc2)c2ccccc21 (configuration not stated),active: 5.8 µM,–
CCOC(=O)c1cc2c(=O)n3ccccc3nc2n(CC2CCCO2)c1=NC(=O)c1cc(C)cc(C)c1 (configuration not stated),active: 0.164 µM,–
C/C(=N\N1CCN(Cc2ccccc2Cl)CC1)c1ccc([N+](=O)[O-])cc1,"inconclusive: 29.1 µM [inhibitor, single point]",–
COc1ccc2c(c1)CCc1c-2nc2ccccc2c1N1CCOCC1,active: 1.64 µM,–
Cc1ccc(OCC(O)CNCc2ccccc2)cc1C (configuration not stated),"inconclusive: 29.1 µM [inhibitor, single point]",–
CC1(C)Nc2cccc3cccc(c23)N1,"inconclusive: 20.6 µM [inhibitor, single point]",–
S=c1[nH]nc(CN2CCCCC2)n1Cc1ccccc1,active: 14.6 µM,–
Cc1ccc(NC(=O)NC(=O)CN2C(=O)NC3(CCc4ccccc43)C2=O)c(C)c1 (configuration not stated),–,inactive: 5.85%
COc1ccc(/C=C2\CCC(C3CCCC3)C2=O)c(OC)c1OC (configuration not stated),"inconclusive: 29.1 µM [inhibitor, partial curve, poor fit]",–
COc1ccc(C(=O)CC(=O)C(=O)Nc2ccccc2)cc1,"inconclusive: 36.6 µM [inhibitor, single point]",–
CCC1CN(C(=O)N2CCC(C(=O)NCCc3ccc(OC)c(OC)c3)CC2)c2ccccc2O1 (configuration not stated),"inconclusive: 29.1 µM [inhibitor, single point] and inconclusive: 20.6 µM [inhibitor, single point]",–
Cc1ccc(C)c(N2CCN(C(=O)C3CCC(CNS(=O)(=O)c4cccs4)CC3)CC2)c1 (configuration not stated),"inconclusive: 29.1 µM [inhibitor, single point]",–
CC(C)(C)n1nnnc1CN(Cc1cccnc1)Cc1ccccc1Cl,–,inactive: -19.3%
Cc1ccc(C)c(CC(=O)N2CCCCC2c2cc(C(=O)Nc3cccc(C#N)c3)no2)c1 (configuration not stated),active: 23.1 µM,–
CCN(C(=O)Cn1nc(C)n2c(cc3cc(C)ccc32)c1=O)c1ccccc1,"inconclusive: 25.9 µM [inhibitor, single point]",–
CC1CCCC(NC(=O)CSC2=Nc3ccccc3C3CC=NN23)C1C (configuration not stated),"inconclusive: 29.1 µM [inhibitor, single point]",–

Compound,Potency,"activity change, negative = growth inhibition"
Cc1ccc(OC(C)C(=O)Nc2ncc(Cl)cc2Cl)c([N+](=O)[O-])n1 (configuration not stated),"inconclusive: 29.1 µM [inhibitor, single point]",–
CCOC(=O)N1CCc2c(sc3c2c(=O)n(-c2ccc(CC)cc2)c(=O)n3Cc2cccc(Cl)c2)C1,"inconclusive: 4.11 µM [inhibitor, single point]",–
Cc1cc(F)ccc1-c1cc(C(=O)Nc2ccc(F)cc2)[nH]n1,"inconclusive: 25.9 µM [inhibitor, single point]",–
O=C(NNC(=O)C1CCN(S(=O)(=O)c2ccccc2C(F)(F)F)CC1)c1ccccc1O,"inconclusive: 23.1 µM [inhibitor, single point]",–
Cc1ccccc1OCC(=O)Nc1nc(C)c(C(=O)N(C)C)s1,–,inactive: -13.6%
CCc1ccc(N(C(=O)c2csnn2)C(C(=O)NC(C)(C)CC)c2ccccn2)cc1 (configuration not stated),"inconclusive: 18.4 µM [inhibitor, single point]",–
CCc1ccc(/C=N/NC(=O)c2cc(C3CC3)nc3ccccc23)s1,active: 4.61 µM,–
Cc1cc(N2CCN(c3ccccc3)CC2)nc(-c2ccccc2O)n1,"inconclusive: 29.1 µM [inhibitor, single point]",–
Cc1cc(C)n(-c2ccc(C(=O)OCC(=O)Nc3ccc(S(N)(=O)=O)cc3)cc2)n1,"inconclusive: 13 µM [inhibitor, partial curve, poor fit]",–
COC(=O)c1cc(NC(=O)Nc2cc(OC)ccc2OC)cc(C(=O)OC)c1,"inconclusive: 29.1 µM [inhibitor, single point]",–
Cn1c(CS/C(N)=N/N=C/c2ccccc2)c(Br)c(=O)n1-c1ccccc1,–,inconclusive: -32.3% [inhibitor]
CC1CC(C)CN(C(=O)COC(=O)Cc2ccc(Br)cc2)C1 (configuration not stated),–,inactive: 24.1%
CCOC(=O)c1cccnc1SC(CC)C(=O)NCc1ccco1 (configuration not stated),"inconclusive: 35.5 µM [inhibitor, single point]",–
COc1ccc(N2CCN(C(=O)c3ccccc3F)CC2)c([N+](=O)[O-])c1,"inconclusive: 18.4 µM [inhibitor, single point]",–
COc1cc(/C=N/N2CCN(c3ccc(Cl)cc3)CC2)cc(OC)c1OC(C)=O,"inconclusive: 16.4 µM [inhibitor, single point]",–
CC(=O)Nc1ccc(N2CCCCC2)c(C(=O)Nc2cccc(C)c2)c1,"inconclusive: 23.1 µM [inhibitor, single point]",–
CC1CCN(S(=O)(=O)c2ccc3nc(NCc4ccc(N(C)C)cc4)ccc3c2)CC1,active: 23.1 µM,–
CCOc1cc(CNCCc2ccc(S(N)(=O)=O)cc2)ccc1OCc1ccccc1,active: 11.6 µM,–
Cc1ccc(NC(=O)CN2C(=O)C(c3ccc(F)cc3)=NC23CCCCCC3)c(C)c1,"inconclusive: 23.1 µM [inhibitor, single point]",–
CCC(C)NCCOCCOc1ccccc1-c1ccccc1 (configuration not stated),"inconclusive: 25.9 µM [inhibitor, single point]",–
CCCCCn1c(N)c(-c2nc3ccccc3o2)c2c([N+](=O)[O-])nn(CC)c(=O)c21,–,inconclusive: -30.5% [inhibitor]
C/C(=N\NC(=O)CCCNc1ccc(C)cc1)c1ccccn1,active: 5.8 µM,–
CCn1cc(C(=O)N2CCCC(N3CCN(c4cccc(C(F)(F)F)c4)CC3)C2)cn1 (configuration not stated),–,inconclusive: -30.2% [inhibitor]

Compound,Potency,"activity change, negative = growth inhibition"
Cc1ccc(Cl)cc1N1CCN(C(=O)C2CCN(S(=O)(=O)c3cnc[nH]3)CC2)CC1,"inconclusive: 29.1 µM [inhibitor, single point]",–
Cc1cc(N2CCN(C(=O)c3ccoc3)CC2)n2nc(-c3ccccc3)cc2n1,"inconclusive: 29.1 µM [inhibitor, single point]",–
Cc1ccc(NC(=O)C2CCN(S(=O)(=O)c3cccc4nsnc34)CC2)cc1,–,inactive: -12.5%
CCN(CCn1cccn1)Cc1cn[nH]c1-c1ccc(OC)cc1F,–,inconclusive: -32.6% [inhibitor]
Cn1c2ccccc2c(=O)c2ccc(NCCc3cccs3)cc21,"inconclusive: 23.1 µM [inhibitor, single point]",–
O=S1(=O)CC(N2CC=CC2)CN1Cc1ccc(F)cc1 (configuration not stated),"inconclusive: 29.1 µM [inhibitor, single point]",–
CCN(Cc1ccccc1)C(c1ccccn1)c1nnnn1C1CCCCC1 (configuration not stated),"inconclusive: 16.4 µM [inhibitor, partial curve, poor fit]",–
Cc1cccc(CN2CCC(n3nccc3NC(=O)CCCc3ccccc3)CC2)c1,"inconclusive: 29.1 µM [inhibitor, single point]",–
CCc1cccc(NC(=O)Cn2c(=O)n(CCCCCC(=O)NCc3ccc(F)cc3)c(=O)c3sccc32)c1,"inconclusive: 25.9 µM [inhibitor, single point]",–
O=c1c(O)c(-c2ccccc2)oc2ccccc12,"inconclusive: 29.1 µM [inhibitor, single point] and inconclusive: 18.4 µM [inhibitor, single point]",–
O=c1c2ccccc2[nH]c(=S)n1CC1CCCO1 (configuration not stated),–,inactive: 3.57%
OCC1CSC(=S)N1Cc1ccccc1 (configuration not stated),"inconclusive: 29.1 µM [inhibitor, single point]",–
CC(=O)NC(CC(=O)Nc1ccc(S(=O)(=O)N2CCCCC2)cc1)c1ccccc1 (configuration not stated),"inconclusive: 29.1 µM [inhibitor, single point]",–
CC(=O)c1nn(-c2cccc(C(F)(F)F)c2)c(=O)[nH]c1=O,–,inactive: -7.71%
Cc1cc(N2CCCC2)ccc1NC(=O)COc1ccccc1,"inconclusive: 29.1 µM [inhibitor, single point]",–
Cn1c(N2CCN(C(=O)NCc3ccccc3)CC2)nc2ccccc21,"inconclusive: 3.26 µM [inhibitor, full curve, poor fit]",–
Oc1ccc(N2CCN(C(=S)NCCc3ccccc3)CC2)cc1,active: 6.51 µM,–
CCOC(=O)c1ccccc1NC(=O)CN(c1ccccc1)S(=O)(=O)c1ccc(OCC)cc1,active: 23.1 µM,–
COc1ccccc1NS(=O)(=O)c1ccc(-c2cnc(C3CC3)o2)cc1,active: 0.731 µM,–
Cc1ccn2cc(-c3cnoc3C)nc2c1,"inconclusive: 29.1 µM [inhibitor, single point]",–
COc1cc(/C=N/N2C(=O)c3ccccc3NC2(C)c2cccc([N+](=O)[O-])c2)cc(Br)c1O (configuration not stated),"inconclusive: 29.1 µM [inhibitor, single point]",–
